Ends that are not written are not given here. CPQ2 = quencher
Tests used:
[1] = test system: cathepsin and/or MMP protease activities; assay: Ex vivo probe cleavage in plasma of healthy, NASH regression and NASH progression mice; format: biochemical; conditions: K2EDTA plasma collected at 20 weeks
Excerpt: Plasma samples were collected from all animals at 20 weeks.
The probes showing the most differentiation in NASH were linked to cathepsin and/or MMP protease activities.

[2] = test system: caspase activity in hepatitis; assay: Ex vivo probe cleavage in plasma of Jo2 fulminant hepatitis mice; format: biochemical; conditions: mouse plasma 3 hours after Jo2 injection vs healthy
Description: Fulminant hepatitis is induced after injection intraperitoneal of monoclonal antibody anti-CD95 (Jo2, BD biosciences, 4 ug/animal), and mouse plasma samples were collected 3 hours after Jo2 injection.

Granzyme B = Granzyme B (Homo sapiens, UniProt P10144); assay: Ex vivo probe cleavage in COVID+ vs COVID- swab samples; conditions: for number of active samples: adjusted RFU across timepoints
Chain of Granzyme B (P10144 21-247): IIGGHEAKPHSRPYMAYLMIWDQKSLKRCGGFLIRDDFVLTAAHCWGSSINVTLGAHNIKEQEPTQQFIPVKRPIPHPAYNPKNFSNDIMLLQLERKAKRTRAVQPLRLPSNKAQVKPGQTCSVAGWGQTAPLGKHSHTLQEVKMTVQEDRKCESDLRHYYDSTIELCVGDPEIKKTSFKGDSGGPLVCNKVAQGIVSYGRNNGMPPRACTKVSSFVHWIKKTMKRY

## Probe #647: Caspase centric probe; signal measures the activity of protease Granzyme B (GAIEPDSGGK(CPQ2); not fully specified (N-terminus, C-terminus); also: 5FAM (place not given here), PEG2 (place not given here), C-terminal amide)
[1]
  differentiation among healthy, regression and NASH samples: can differentiate
[2]
  contrast in Jo2 hepatitis model: show contrast that is specific and sensitive to the Jo2 model
Granzyme B; COVID+ (n=18) vs COVID- (n-19), p=0.029
  difference between COVID+ and COVID- samples: significant differences
Granzyme B; COVID+ swab samples
  number of active samples: 7 samples
Granzyme B; COVID- swab samples
  number of active samples: 1 sample
Granzyme B; inhibition experiments, healthy vs COVID samples
  protease whose activity the probe signal measures: measures the activity of protease Granzyme B
Granzyme B; swabs in saline
  differentiation between COVID+ and COVID- samples: key differentiator

From patent US11851697B2, “Ex vivo protease activity detection for disease detection/diagnostic, staging, monitoring and treatment” (Glympse Bio, Inc., priority 2020, dated 2023)
